Experiment [1] concerns AOM-induced colon tumors. Put plainly: azoxymethane (AOM)-induced tumorigenesis, UA containing diet. Format: in vivo, FVB mice. As to conditions: UA containing diet (2.28 g/kg) vs control diet. The source says: Colorectal tumors were induced by 6 consecutive weekly injections of AOM on mice fed with food containing 2.28 g/kg Urolithin A (UA diet) or with control food. The diet was introduced one-week prior the first AOM injection and maintained until the end of the experiment at ˜20-24 weeks. The colons were collected for subsequent histological analysis as described below.
For histological analysis of colon tissue, colons were paraffin embedded using the “swiss roll” technique and serially sectioned at 200 μm. After deparaffinization and rehydration of the tissue, haematoxylin and eosin (H&E) staining and α-CD3 (IS503: DAKO) was performed using a Leica Bond Max following standard immunochemistry staining protocols. Stained sections were scanned using Aperio CS2 (Leica). AOM tumor lesion size and incidence were quantified using Aperio ImageScope software.

The test system of experiment [2] is APTK-s.c. tumors. Put plainly: subcutaneous APTK tumors, UA-supplemented diet. The experiment is classed as in vivo, C57BL/6 mice. Conditions: CD8+ T cell depleting antibodies; control and UA-fed cohorts.

This is an account of results in patent publication US20260069693A1, “UROLITHINS AND T-CELL MEDIATED IMMUNE RESPONSE” (priority 2022, published 2026).

`O=c1oc2cc(O)ccc2c2ccc(O)cc12` [UA, Urolithin A]: the “infiltration of CD3+ T cells into the colonic mucosa” value in experiment [1] is reported as “increased infiltration”. In addition, in experiment [1] (18 weeks), the tumor incidence result was “significant decrease” and the tumor size entry is “significant decrease”. The “tumor growth upon depletion of CD8+ T cells” value in experiment [2] was “exacerbated tumor growth in both control and UA-fed cohorts”.
